Test results as given in the supplement of paper PMC3334620.
Over roughly 33,000 sequences, “E-score (-0.5 to 0.5)” has its median near -0.013; the highest 2% begin near 0.3. This is one part of the list.

Molecular target: T1, Msn1 (UniProt P22148)
T1 sequence: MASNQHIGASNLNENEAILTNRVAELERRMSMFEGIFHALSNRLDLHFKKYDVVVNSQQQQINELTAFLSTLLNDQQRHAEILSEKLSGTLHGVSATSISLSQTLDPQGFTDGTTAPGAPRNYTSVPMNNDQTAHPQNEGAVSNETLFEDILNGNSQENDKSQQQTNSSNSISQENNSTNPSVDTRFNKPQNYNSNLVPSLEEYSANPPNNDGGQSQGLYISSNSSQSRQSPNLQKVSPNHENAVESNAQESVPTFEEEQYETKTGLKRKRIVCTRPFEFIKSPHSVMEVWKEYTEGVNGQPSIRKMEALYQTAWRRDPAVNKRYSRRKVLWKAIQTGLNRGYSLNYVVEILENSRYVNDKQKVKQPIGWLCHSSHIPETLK
Assay: PBM E-score (8-mer binding enrichment) (E-score (-0.5 to 0.5)); higher = stronger / more preferred TF binding; most listed sequences are background and not binding sites
Settings: protein concentration: 200 nM; construct: GST-full length
In short: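 E-scores (a modified Wilcoxon-Mann-Whitney statistic) were assigned by the Universal PBM Analysis Suite to every ungapped eight-base word pooled with its reverse complement. The input came from universal all-10-mer Agilent arrays made double-stranded by primer extension and probed with GST-tagged yeast transcription factors at about 100-200 nM. Fluorescent anti-GST detected bound protein, and masliner normalised the scans.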

Sequence | PBM E-score
ATTCTCGG | 0.2
CACTAGCG | -0.0765
CCAGGGTA | -0.247
GCGGGCTA | -0.185
ACGAGCAT | 0.0161
CCGTACTA | 0.0908
GATTACTA | 0.025
AAACCCCG | 0.0184
GAATCACC | 0.0337
GTATCGCA | 0.0994
CGGGACCG | -0.0676
CAGATATC | -0.0317
ACGGTGCC | -0.158
ACAAAGTC | 0.236
AGTGTCAA | 0.0192
ACTAGACT | -0.115
CCCGCACG | -0.203
ACCTAGGT | -0.238
AGTGAAAA | -0.0483
CCGCTGAC | -0.0504
CAGGTTTA | 0.0966
AGCGATGA | 0.0269

Sequence | PBM E-score
ATGAGAAA | 0.137
TAAGACGA | -0.00272
ACTGGTCT | -0.25
CGCAGTTA | 0.0767
AATAAGCC | -0.018
CCGCCTGA | -0.154
ATGAGCAT | 0.017
AACCGACC | -0.0206
GAATAACC | -0.158
ATGCTGAG | -0.236
CAACGCAG | -0.182
GCCTGAAA | -0.0168
GCGCACCC | -0.15
ACACACGG | 0.0261
GGGCGCCC | -0.0539
CGTCGGAG | 0.00341
CTAATGCA | 0.137
ATAAACCG | 0.0472
CACGTCTC | -0.0251
GTAGCCGA | -0.264
CACCTGCA | -0.0399
ACAGACGC | 0.00941

Sequence | PBM E-score
ACCCTTTC | -0.0752
GAACGTGA | 0.0469
GCCTCGTA | 0.107
CATGCTAA | -0.0237
GACGCTCC | -0.253
ATCAAAAG | 0.169
CTAATATA | 0.224
AAGACGCC | 0.0234
AGGCCAGG | -0.101
CTGTCAAG | -0.104
CCTCAAAA | 0.00278
GCTTTACC | -0.00166
CTGACAAG | 0.161
GGAACCCC | -0.334
TAACTGGA | 0.0495
GCCGTGCA | -0.0435
GGCCTACC | -0.159
ATGAGTAC | 0.143
CCTAGGTC | -0.0456
CCTCGTAC | 0.0851
AACTTTTA | 0.0848
ATTGCCCC | -0.115

Sequence | PBM E-score
CCAGGCCC | -0.214
CCTACTAC | -0.075
ACATCACA | -0.00199
AACTACTA | 0.265
GCGTCAGA | -0.0619
GCCGATTA | -0.0616
AGAAACAG | -0.0654
CAGAGTGG | 0.0256
GATTACCA | -0.109
CATTAGGG | 0.0376
AAAGTAGT | -0.0142
AGACGCCT | -0.191
ACGTAGTG | -0.0424
TCAATCGA | -0.00235
ATCCCAAA | 0.177
AACAGGAC | 0.164
AACCGCCG | -0.0276
AGACAATG | 0.295
ACGATCGG | 0.0315
CCTGAGAC | 0.0271
